Experimental data published in PubChem BioAssay AID624296 (National Center for Advancing Translational Sciences (NCATS), 2012).
Screen size: about 350,000 compounds; about 9,900 (2.8%) were called active. The shares of active, inactive and inconclusive entries below differ from those in the screen. The call rests on the fitted dose curve; in most records, active means well fitted activation curve with a large enough effect; inconclusive means small, poorly fitted or top-dose-only effect; inactive means no such curve, though single readings can be large or run the other way. No potency is given beside an inconclusive call; the fits are too rough. Some structures have more than one record in an assay (separate samples or runs), and their calls can disagree.
Potency means the concentration at half of the fitted maximal effect; tags describe the fitted curve by direction and shape.

Assay: A quantitative high throughput screen for small molecules that induce DNA re-replication in MCF 10a normal breast cells. Further: nearly all actives have a fitted effect of over 50% in size. On activity, positive = re-replication: % of control where 0% means no effect.
Details: MCF 10A DNA re-replication, Hoechst nuclear intensity, 48 h; activity, positive = re-replication: at 46.1 µM (top of the series)
In the case of `Cc1cc(C)nc(NC(N)=NCCc2c[nH]c3ccccc23)n1`, the Potency is reported as “inactive”. In the case of `CC(CNC(=O)c1ccccc1Cl)NC(=O)c1ccccc1Cl` (stereo not drawn), the Potency is reported as “inactive”. In the case of `NC1=NC(c2cccc(O)c2)n2c(nc3ccccc32)N1` (stereo not drawn), the Potency is reported as “inactive”. In the case of `Cc1cc(NC(=O)c2cc([N+](=O)[O-])ccc2Cl)no1`, the Potency is reported as inconclusive [activator, single point]. In the case of `CCCNc1ncnc2nc[nH]c12`, the Potency is reported as inconclusive [activator, partial curve, poor fit]. With `COc1ccc(-c2cc(C(=O)N3CCCC3)no2)cc1` the Potency was “inactive”. With `Cc1ccc2cccc(OC(=O)c3ccc4c(c3)OCCO4)c2n1` the Potency was inconclusive [activator, partial curve, poor fit]. With `O=C(CP(=O)(c1ccccc1)c1ccccc1)N1CCCCC1` the Potency was inconclusive [activator, partial curve, poor fit]. For `CN(CCOc1ccc(-c2ccn(S(=O)(=O)c3ccc(Cl)cc3)n2)cc1)c1ccccn1`, the Potency was inconclusive [activator, partial curve, poor fit]. In the case of `CCCOc1ccc(OCCN2CCCC(C)C2)cc1` (stereo not drawn), the Potency is reported as inconclusive [activator, full curve, poor fit]. For `CC1=CC(C)(C)Nc2ccccc21`, the Potency was inconclusive [activator, full curve, poor fit]. With `O=C(CN1CCN(Cc2ccc(F)cc2Cl)CC1)NCc1ccccc1` the Potency was inconclusive [activator, single point]. In the case of `COC(=O)c1ccc(C)c(-n2c(C)cc(C=O)c2C)c1`, the Potency is reported as “inactive”. In the case of `CCc1c(C)c(C#N)c2nc3ccccc3n2c1NCCOC`, the Potency is reported as inconclusive [activator, single point]. In the case of `COc1ccc(CC(=O)NCc2n[nH]c(=S)n2-c2cccc(Cl)c2)cc1`, the Potency is reported as “inactive”. With `CCN1CCN(CCCNC(=O)c2ccc3c(Cl)c4c(nc3c2)CCCC4)CC1` the Potency was inconclusive [activator, single point]. In the case of `CC(=O)N(c1ccc2oc(=O)sc2c1)S(=O)(=O)c1ccccc1`, the Potency is reported as inconclusive [activator, partial curve, poor fit]. For `CSc1nnc2ccc(-c3cccs3)nn12`, the Potency was inconclusive [activator, full curve, poor fit]. In the case of `CCCN1Cc2cccc(C(=O)NCCc3cccc(C)c3)c2C1=O`, the Potency is reported as “inactive”. In the case of `CC(C)(C)C(=O)Nc1sc2c(c1C#N)CCC2`, the Potency is reported as inconclusive [activator, single point]. With `N#C/C(=C(/O)CCl)c1nc2ccccc2[nH]1` the Potency was inconclusive [activator, single point]. With `c1ccc(Nc2nc(-c3cccs3)cs2)nc1` the Potency was “inactive”. In the case of `COc1ccccc1N1C(C)=CC(=C(C#N)c2nc3ccccc3s2)C=C1C`, the Potency is reported as inconclusive [activator, single point]. In the case of `O=C(CCCN1CCC(C(=O)c2ccc(F)cc2)CC1)c1ccc(F)cc1`, the Potency is reported as active: 20.6 µM. With `Nc1ccc2c(c1)C(=O)c1cc(N)c(Cl)cc1-2` the Potency was “inactive”. For `COc1cccc(/C=C2\SC(=O)N(CC(=O)NC3C=CS(=O)(=O)C3)C2=O)c1` (stereo not drawn), the Potency was “inactive”. In the case of `O=C(/C=C/c1cccs1)c1ccc(N2CCOCC2)cc1`, the Potency is reported as inconclusive [activator, single point]. For `CCc1ccc(/C(C)=N/NC(=O)CNC(=O)/C=C/c2ccco2)cc1`, the Potency was “inactive”. In the case of `CC(=O)c1ccc(NC(=S)N(Cc2ccccc2)C(C)C2CC2)cc1` (stereo not drawn), the Potency is reported as inconclusive [activator, full curve, poor fit]. In the case of `COc1cc([N+](=O)[O-])cc(/C=N/NC(=O)Cn2nc(C)cc2C)c1O`, the Potency is reported as inconclusive [activator, single point]. With `COc1ccc(C=C2SC(=O)NC2=O)cc1OC` the Potency was “inactive”. In the case of `C/C(=N\Nc1ccc([N+](=O)[O-])cc1)c1ccc(N)cc1`, the Potency is reported as inconclusive [activator, single point]. In the case of `COc1ccc(NC2CCCN(C(=O)CCc3cccc(Cl)c3)C2)cc1` (stereo not drawn), the Potency is reported as “inactive”. In the case of `O=C(/C=C\c1cccs1)c1c(O)ccc2ccc(=O)oc12`, the Potency is reported as active: 20.6 µM. For `COc1ccc(C2=Nn3c(nnc3-c3ccccc3OC)SC2)cc1OCC1CC1`, the activity, positive = re-replication was inconclusive: 122% [activator]. With `O=C(CCC1CCN(C(=O)c2ccccc2Cl)CC1)NCc1ccc(F)cc1` the Potency was inconclusive [activator, single point]. In the case of `COCCNC(=O)CN(C(=O)c1ccc(N2CCCC2)nc1)c1ccc(Cl)cc1`, the Potency is reported as inconclusive [activator, single point]. For `N#C/C(=C\c1cc([N+](=O)[O-])ccc1Cl)C(N)=O`, the Potency was active: 20.6 µM. With `COc1ccc(CCC(=O)Nc2cnc3ccccc3c2)cc1` the Potency was “inactive”. For `CC(C)Oc1ccc(C(=O)Nc2nnc(SCC(=O)N3CCOCC3)s2)cc1`, the Potency was “inactive”. With `CCCC(=O)Nc1cc(OC)c(NC(=S)Nc2ccc(CC)cc2)cc1OC` the Potency was inconclusive [activator, single point]. In the case of `Brc1ccc(NCc2cccc3ccccc23)nc1`, the Potency is reported as inconclusive [activator, partial curve, poor fit]. With `COC(=O)[C@]1(C)CCC[C@@]2(C)C3CC[C@]4(OC(C)=O)C[C@@]3(CCC21)CC4=NO` (stereo partly drawn) the Potency was inconclusive [activator, partial curve]. In the case of `CCCc1nc2ccccc2c(C(=O)OCC(=O)Nc2ccc(S(=O)(=O)N3CCOCC3)cc2)c1CC`, the Potency is reported as inconclusive [activator, partial curve, poor fit]. In the case of `Cn1ncc2c(Nc3ccc4ccccc4c3)ncnc21`, the Potency is reported as inconclusive [activator, single point]. With `Cc1sc2ncnc(SCC#N)c2c1C` the Potency was inconclusive [activator, single point]. For `CCn1c(SC(C)C(=O)NCC2CCCO2)nc2scc(-c3ccccc3)c2c1=O` (stereo not drawn), the Potency was inconclusive [activator, full curve, poor fit]. With `Cc1ccc(N(Cc2cc(=O)[nH]c3ccccc23)C(=O)CCl)cc1` the Potency was inconclusive [activator, single point]. In the case of `Cc1onc(-c2ccccc2)c1C(=O)NC(=S)NNC(=O)c1ccco1`, the Potency is reported as “inactive”. With `CN1CCc2cc3c(c4c2[C@H]1[C@H](O)c1ccccc1-4)OCO3` the Potency was “inactive”. In the case of `CC(/C=N/NC(=O)c1ccncc1)=C\c1ccco1`, the Potency is reported as “inactive”. For `CC(C)c1ccc(/C=N/NC(=O)c2nnn(-c3nonc3N)c2CSC2=NCCS2)cc1`, the Potency was inconclusive [activator, single point]. In the case of `COc1c(C(CC(C)C)OC(C)=O)ccc2c1C(=O)OCc1cc(C)cc(O)c1O2` (stereo not drawn), the Potency is reported as inconclusive [activator, single point]. In the case of `CCOC(=O)c1c(C)[nH]c(C)c1C(=O)COC(=O)CSc1ccc(C)cc1`, the Potency is reported as “inactive”. With `Cc1cccc(N2CCN(C(=O)c3cc(C)oc3C)CC2C)c1` (stereo not drawn) the Potency was inconclusive [activator, single point]. For `Oc1ccccc1C(Nc1nccs1)c1ccc2cccnc2c1O` (stereo not drawn), the Potency was inconclusive [activator, single point]. In the case of `CON=C(C(=O)NC1C(=O)N2C(C(=O)O)=C(CSc3nc(=O)c(=O)[nH]n3C)CSC12)c1csc(N)n1` (stereo not drawn), the Potency is reported as inconclusive [activator, single point]. For `CCc1ccc(C(c2c(C)nn(-c3ccccc3)c2N)c2c(C)nn(-c3ccccc3)c2N)cc1`, the Potency was inconclusive [activator, partial curve, poor fit]. With `CCOC(=O)Cc1csc(NC(=O)/C=C/c2ccc(Cl)cc2)n1` the Potency was inconclusive [activator, single point]. For `CCOc1ccc(NC(=O)CN(C)C(=O)c2ccncc2)cc1OCC`, the Potency was “inactive”. For `COc1ccc(Nc2nccc(-c3cccc(N)c3)n2)cc1`, the Potency was inconclusive [activator, partial curve, poor fit]. In the case of `CCCc1ccc2oc(C(=O)N3CCN(c4cnccn4)CC3)c(C)c2c1`, the Potency is reported as inconclusive [activator, partial curve]. With `CCc1nnc(NC(=O)CSc2nnc(-c3ccoc3C)n2CC(C)C)s1` the Potency was inconclusive [activator, single point]. With `CN1N=C(C(=O)NC2CCCc3c2cnn3-c2ccc(F)cc2F)CCC1=O` (stereo not drawn) the Potency was “inactive”. With `CCCOc1ccc(OCCOCCN2CCc3ccccc3C2)cc1` the Potency was “inactive”. With `CCOC(=O)N1CCC(NC(=O)c2cc3sccc3n2CC)CC1` the Potency was inconclusive [activator, full curve, poor fit]. With `COc1ccc(-c2cc(-c3ccccc3)nc(N3CCCC3)n2)cc1OC` the Potency was inconclusive [activator, full curve]. In the case of `O=C(c1cccc2ccccc12)C1CCCN(C(=O)c2ccc(N3CCOCC3)cc2)C1` (stereo not drawn), the Potency is reported as “inactive”. With `CCN(C(=O)COC(=O)c1ccc(OCc2c(C)noc2C)cc1)c1ccccc1` the Potency was “inactive”. For `Cc1ccc(/C=C(\C#N)c2nn(-c3ccccc3)c(N)c2C#N)cc1`, the Potency was inconclusive [activator, single point]. In the case of `Cc1ccccc1-n1nc2c(c1NC(=O)C1CCCC1)CS(=O)(=O)C2`, the Potency is reported as active: 18.4 µM. In the case of `CC(=O)n1cc(N(C(=O)CCl)c2ccccc2)c2ccccc21`, the Potency is reported as active: 16.4 µM. With `COc1ccccc1N1CCN(C(=O)c2ccc(Cl)c(S(=O)(=O)NCc3ccco3)c2)CC1` the Potency was inconclusive [activator, partial curve, poor fit].
